The campaign covered roughly 310,000 compounds. About 14,000 (4.5%) showed an effect of 50% or more. The effect is printed as a negative number. Some of the results follow.
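Also: peak tail current of the secondary pulse compared with the same well before compound.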

The target of the experiment is human ether-à-go-go-related gene (hERG) potassium channel (human, UniProt Q12809). Description: primary screen, population patch clamp on CHO cells stably expressing hERG.
Chain of human ether-à-go-go-related gene (hERG) potassium channel (Q12809 whole entry, looked up): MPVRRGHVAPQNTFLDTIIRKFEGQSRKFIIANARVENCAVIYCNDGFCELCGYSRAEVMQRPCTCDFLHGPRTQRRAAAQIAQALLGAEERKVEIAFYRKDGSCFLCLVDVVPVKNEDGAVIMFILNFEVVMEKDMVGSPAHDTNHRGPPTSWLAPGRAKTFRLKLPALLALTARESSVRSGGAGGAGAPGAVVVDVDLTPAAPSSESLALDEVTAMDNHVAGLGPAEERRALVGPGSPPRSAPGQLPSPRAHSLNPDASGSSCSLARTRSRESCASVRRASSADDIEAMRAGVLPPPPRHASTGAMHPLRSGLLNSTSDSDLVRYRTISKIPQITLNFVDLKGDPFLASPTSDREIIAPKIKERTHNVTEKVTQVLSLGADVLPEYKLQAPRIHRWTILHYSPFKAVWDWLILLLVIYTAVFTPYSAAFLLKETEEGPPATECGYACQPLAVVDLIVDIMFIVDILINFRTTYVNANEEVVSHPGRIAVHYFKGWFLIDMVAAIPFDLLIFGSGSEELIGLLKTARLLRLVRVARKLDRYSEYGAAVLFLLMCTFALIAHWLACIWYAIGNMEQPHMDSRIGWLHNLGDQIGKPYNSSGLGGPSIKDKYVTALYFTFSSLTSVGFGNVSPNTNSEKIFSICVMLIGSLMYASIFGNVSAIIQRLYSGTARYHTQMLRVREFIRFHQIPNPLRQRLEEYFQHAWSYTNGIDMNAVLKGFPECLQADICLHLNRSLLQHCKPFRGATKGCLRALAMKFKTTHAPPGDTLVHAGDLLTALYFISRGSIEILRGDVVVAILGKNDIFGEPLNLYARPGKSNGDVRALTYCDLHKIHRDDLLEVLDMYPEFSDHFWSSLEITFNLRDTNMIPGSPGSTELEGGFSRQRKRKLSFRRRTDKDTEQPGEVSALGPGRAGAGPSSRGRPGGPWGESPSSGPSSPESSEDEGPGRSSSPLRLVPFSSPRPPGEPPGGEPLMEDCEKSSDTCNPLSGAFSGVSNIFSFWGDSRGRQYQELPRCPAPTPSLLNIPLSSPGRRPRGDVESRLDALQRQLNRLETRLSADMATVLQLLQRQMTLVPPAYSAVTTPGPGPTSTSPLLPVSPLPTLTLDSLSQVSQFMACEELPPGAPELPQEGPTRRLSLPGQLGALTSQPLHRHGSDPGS
For `Cc1ccc(NC(=O)c2ccc(N3CCCC3=O)cc2)cc1S(=O)(=O)N1CCCCC1`, the “hERG current change (%, negative = inhibition) at 10uM” value is recorded as -3.33%.
As to `CN(C)S(=O)(=O)c1ccc(NC(=O)Cn2ccsc2=N)cc1`, the “hERG current change (%, negative = inhibition) at 10uM” value is recorded as 13.7%.
Under `COC(=O)C1CCN(S(=O)(=O)CCNC(=O)c2cccc(OC)c2)CC1` stands -3.28%.
Under `C/C=C/C(=O)OCc1csc(CC(=O)Nc2ccccc2C)n1` stands 0.285%; under `c1ccc(COn2c(-c3ccccc3)nc3c2CCc2nonc2-3)cc1`, 18.3%.
`O=C(NCc1ccncc1)C12CC3CC(CC(C3)C1)C2`: the “hERG current change (%, negative = inhibition) at 10uM” value amounted to 0.119%.
Under `Cc1ccc(NC(=O)c2sc3nc(N4CCOCC4)c4c(c3c2N)CC(C)(C)OC4)cc1` stands 5.7%; under `Cc1ccc(NS(=O)(=O)c2ccc(CCC(=O)NCCCOC(C)C)cc2)cc1`, 4.27%; under `CCCOc1ccc(C2=NNC(=O)CC2)cc1`, 3.38%.
As for `Cn1c(NC(=O)C[n+]2cc(-c3ccc(F)cc3)n3c2CCC3)cc(=O)n(C)c1=O.[Cl-]`, the “hERG current change (%, negative = inhibition) at 10uM” value is given as 1.04%.
On to `O=C(CCn1cnc2ncccc2c1=O)N1CCN(c2cccc(Cl)c2)CC1`, for which the “hERG current change (%, negative = inhibition) at 10uM” value was -20.8%.
Consider `CCOC(=O)c1c(C)[nH]c(C)c1C(=O)COC(=O)c1ccc(OC)c(OC)c1`, for which the “hERG current change (%, negative = inhibition) at 10uM” value is -8.81%.
`CC1CC1C(=O)OCC(=O)Nc1ccc2[nH]c(=O)[nH]c2c1` (stereo not drawn): the “hERG current change (%, negative = inhibition) at 10uM” value was 2.94%.
Under `C=CCC1(CC=C)CCCN1C(=O)C1CCC(=O)N(CCc2ccccc2)C1` (stereo not drawn) stands -12.5%; under `COc1ccc(/C=C/C(=O)OCC(=O)NCc2ccco2)cc1OC`, -72%; under `O=C(NCC(c1cccnc1)N1CCN(c2ccc(F)cc2)CC1)c1ccco1` (stereo not drawn), -47.7%.
Under `OCCC1CN(Cc2cccnc2)CCN1CCc1ccccc1` (stereo not drawn) stands -34.8%; under `Cc1nnc(SCC(=O)Nc2cccc(Br)c2)s1`, -19.4%.
Turning to `Cc1ccc(S(=O)(=O)N(C)C)cc1-n1c(SCC(=O)Nc2ccc(F)cc2Cl)nc2ccccc2c1=O`, the “hERG current change (%, negative = inhibition) at 10uM” value is listed as 0.00438%.
As to `c1ccc(OCc2noc(CN3CC[C@@H]4CCCC[C@H]4C3)n2)cc1`, the “hERG current change (%, negative = inhibition) at 10uM” value was found to be 0.704%.
As to `CCN1CCN(C(=O)c2cc3sccc3n2CC(=O)c2ccccc2)CC1`, the “hERG current change (%, negative = inhibition) at 10uM” value is given as -45.5%.
Take `COc1ccc(Cl)cc1NC(=O)CN(C)C(=O)Cn1[nH]c(=O)c2ccccc2c1=O`: the “hERG current change (%, negative = inhibition) at 10uM” value is -19.6%.
For the molecule `COc1ccc(-c2cccc(NC(=O)c3ccc4c(c3)OCO4)c2)nn1`, the “hERG current change (%, negative = inhibition) at 10uM” value came out at 17.4%.
As to `CC(C)Cc1nc(N2CCN(C(=O)C(C)C)CC2)c(C#N)c2c1CCC2`, the “hERG current change (%, negative = inhibition) at 10uM” value is recorded as -27.2%.
For the molecule `COc1cccc(C(=O)OCCNC(=O)c2cccnc2)c1.Cl`, the “hERG current change (%, negative = inhibition) at 10uM” value is listed as 5.55%.
With `COc1ccccc1NC(=O)Cc1cccs1`, the “hERG current change (%, negative = inhibition) at 10uM” value is given as -1.6%.
`COC(=O)c1cc(S(=O)(=O)NCCCc2ccco2)c[nH]1`: the “hERG current change (%, negative = inhibition) at 10uM” value is given as -7.89%.
For the molecule `COc1cccc(CN2CCN(Cc3cccc4nonc34)CC2CCO)c1` (stereo not drawn), the “hERG current change (%, negative = inhibition) at 10uM” value is -66.3%.
Regarding `O=C(CNc1cc(S(=O)(=O)N2CCOCC2)ccc1N1CCCC1)N1CCc2ccccc21`, the “hERG current change (%, negative = inhibition) at 10uM” value stood at 6.91%.
Under `OC1(c2ccc(Br)cc2)CCNCC1` stands -25.9%; under `COC(=O)CC1Nc2ccccc2SC1=O` (stereo not drawn), 2.85%.
In the case of `O=C(CC(SCCO)c1ccc([N+](=O)[O-])cc1)c1ccco1` (stereo not drawn), the “hERG current change (%, negative = inhibition) at 10uM” value was -35.7%.
Turning to `Cc1cc(-c2ccccc2)nc(N(C)N)c1S(C)(=O)=O`, the “hERG current change (%, negative = inhibition) at 10uM” value is listed as -0.677%.
Under `COCCNC(=O)C(c1ccccc1F)N(C(=O)C(=O)NC1CCCC1)C1CCCCC1` (stereo not drawn) stands -9.4%; under `Cc1ccc(C2N(C)C(=O)c3ccccc3N2C)cc1` (stereo not drawn), 4.3%; under `CSCC(=O)Nc1ccc(F)c(Cl)c1`, 14.2%.
Consider `COc1ccc(N2CCN(CC(=O)Nc3sccc3C#N)CC2)cc1`, for which the “hERG current change (%, negative = inhibition) at 10uM” value is -2.22%.
`S=C(Nc1ccc2c(c1)OCO2)Nc1ccc2c(c1)OCO2`: the “hERG current change (%, negative = inhibition) at 10uM” value came out at 26.1%.
As to `Cc1cccc(-c2nc3ccc(C(=O)N4CCC5(CC4)OCCO5)cc3nc2-c2cccc(C)c2)c1`, the “hERG current change (%, negative = inhibition) at 10uM” value is reported as 17.5%.
Regarding `COc1ccc(CCNC(=O)c2cn(C)c3ccc(S(=O)(=O)N4CCOCC4)cc3c2=O)cc1OC`, the “hERG current change (%, negative = inhibition) at 10uM” value is given as 7.91%.
With `CCN1C(=S)N[C@@H](c2cccc(F)c2)C(C(=O)OC)=C1C`, the “hERG current change (%, negative = inhibition) at 10uM” value is -0.0118%.
As for `Cc1oc(-c2cc3c(cc2Cl)OCO3)nc1CN1CCCC1c1ccc(F)cc1` (stereo not drawn), the “hERG current change (%, negative = inhibition) at 10uM” value was 13.6%.
Under `Cc1c(Cl)c(C(=O)NC2CCCC2)nn1C` stands -0.645%; under `CCCCC(=O)NC(NC(=O)CCCC)c1ccc(OCC(C)C)c(OC)c1`, 3.81%; under `Cc1c(Cl)cccc1N1C(=O)NC(=O)/C(=C\c2cc(C)n(-c3cccc(C(=O)O)c3C)c2C)C1=O`, -11.8%.
Regarding `O=[N+]([O-])c1ccc(CN2CCCCCC2)s1`, the “hERG current change (%, negative = inhibition) at 10uM” value is reported as -1.71%.
On to `Cc1nn(C)c(C)c1CN(C)C(=O)C1c2ccccc2Oc2ccccc21`, for which the “hERG current change (%, negative = inhibition) at 10uM” value was -8.4%.
`COc1ccc(N2CC(C(=O)NC3CCSC3=O)CC2=O)cc1` (stereo not drawn): the “hERG current change (%, negative = inhibition) at 10uM” value is on record as 23.1%.
As to `COc1cccc(C(=O)Nc2ccccc2N2CCCC2)c1`, the “hERG current change (%, negative = inhibition) at 10uM” value is -5.43%.
In the case of `C=C(C)c1cccc(C(C)(C)NC(=O)Nc2ncccn2)c1`, the “hERG current change (%, negative = inhibition) at 10uM” value is on record as -15.3%.
As for `Cc1cc(/C=N/NC(N)=S)c(C)n1-c1ccc(Cl)c(Cl)c1`, the “hERG current change (%, negative = inhibition) at 10uM” value was -4.28%.
With `Cc1ccc(O)c(-c2cc(-c3cccc(Br)c3)n[nH]2)c1`, the “hERG current change (%, negative = inhibition) at 10uM” value is given as 5.03%.
With `CN(C)c1ccc(/C=[N+](\[O-])C2SC(=S)N(C)C2(C)C)cc1` (stereo not drawn), the “hERG current change (%, negative = inhibition) at 10uM” value worked out at 0.163%.
Turning to `Cn1c(=O)c(C(=O)CCl)c(N)n(Cc2ccccc2)c1=O`, the “hERG current change (%, negative = inhibition) at 10uM” value is reported as -0.976%.
Turning to `COc1ccc(CCC(C)Nc2ccc(F)cc2)cc1` (stereo not drawn), the “hERG current change (%, negative = inhibition) at 10uM” value is -3.78%.
`CCCN(CC(=O)Nc1ccccc1C)C(=O)c1ccc(N2CCCC2)c([N+](=O)[O-])c1`: the “hERG current change (%, negative = inhibition) at 10uM” value is -41.3%.
In the case of `Cn1c(=O)[nH]c(=O)c2c1nc(Br)n2CCOc1ccccc1`, the “hERG current change (%, negative = inhibition) at 10uM” value is given as -3.7%.

For the origin of these results see article PMC4336329 (PLoS ONE, 2015).
